Reference: PubChem BioAssay AID463173 (ICCB-Longwood Screening Facility, Harvard Medical School, 2010)
About 4,300 (8.3%) of roughly 52,000 compounds were called active. No stated cut-off is given here; in the data, active means survival mostly below about 52% (no sharp cut-off); inactive means mostly above about 56%. Some of the results follow.

The molecules below were run on DeltatarO mutant (assay: growth inhibition of S. aureus wild type versus tarO mutant, primary screen, teichoic acid synthesis inhibitors, RN4220, OD600 (AID 463173)). Conditions: OD600, 18 h, stronger effect = lower value, screened at 18.75 µg/mL (by protocol).

SMILES | survival
Cc1c(NS(=O)(=O)c2ccc(C(C)(C)C)cc2)c(=O)n(-c2ccccc2)n1C | inactive: 44%
Cc1ccc2occ(CC(=O)Nc3c(C)cccc3C)c2c1 | inactive: 107%
CCCN(C(=O)c1ccc2c(=O)n3c(nc2c1)CCCCC3)c1cccc(Cl)c1 | inactive: 74%
Cc1cc(C)cc(NCc2nnc3n2CCCCC3)c1 | inactive: 89%
Cc1ccc(-n2ncc3c(NC4CCCCC4)ncnc32)cc1C | inactive: 89%
Cc1ccc(C2C(C#N)=C(N)SC(N)=C2C#N)c(C)c1 | inactive: 86%
O=C(c1ccccc1)n1nc(-c2ccc(Cl)cc2)nc1NCc1ccco1 | active: 23%
CCOC(=O)c1cc2c(=O)n3ccccc3nc2n(CCOC)c1=NC(=O)c1c(-c2c(F)cccc2Cl)noc1C | inactive: 148%
CSc1ccc(CCNC(=O)Cn2ncc3c([nH]c4ccccc43)c2=O)cc1 | inactive: 95%
Cc1cccc(NC(=O)CN2C(=O)C(c3ccc(F)cc3)=NC23CCCCCC3)c1C | inactive: 63%
COCC(C)NCc1ccccc1OC (configuration not stated) | inactive: 94%
Cc1cc2c(cc1S(=O)(=O)NCc1ccc(F)cc1)OCC(=O)N2 | inactive: 89%
COc1ccc(C(=O)Nc2ccccc2)cc1 | inactive: 98%
COc1ccc(NC(=O)CN2C(=O)COc3ccc(S(=O)(=O)NC4CCCC4)cc32)cc1OC | inactive: 75%
Cc1ccc(OCc2cc(=O)n3cc(C)sc3n2)c(NC(=O)c2ccco2)c1 | inactive: 81%
COc1ccc(NC(=O)c2cnc3sc(N4CCOCC4)nn3c2=O)c(OC)c1 | inactive: 55%
Cc1ccc(C)c(NC(=O)Cn2cc(S(=O)(=O)NC(C)C)c(S(=O)(=O)NC(C)C)c2)c1 | inactive: 85%
O=C(O)c1cc(N2C(=O)C3CC=CCC3C2=O)ccc1NCc1cccnc1 (configuration not stated) | inactive: 90%
N=C(N)N=Nc1ccc(O)cc1 | inactive: 99%
CCOc1ccc(NC(=O)c2ccc3nc(C(C)C)oc3c2)cc1 | inactive: 78%
COc1ccc(Cn2c(C(=O)O)c(CNCc3ccc(C)o3)c3ccc(OC)cc32)cc1 | inactive: 69%
CCc1cccc(NC(=O)Cn2nc(C)c3sc4ccccc4c3c2=O)c1 | inactive: 74%
COc1ccccc1OC(C)C(=O)N1CCC(c2nc3ccccc3s2)CC1 (configuration not stated) | active: 2%
COc1ccc(-c2nnc(SCC(=O)Oc3cc(C)ccc3C)o2)cc1 | inactive: 67%

SMILES | survival
CCOC(=O)c1cc2c(=O)n3ccccc3nc2n(CC2CCCO2)c1=NC(=O)c1ccc(F)cc1 (configuration not stated) | inactive: 54%
N#CC1=C(N)NC(SCC(=O)Nc2ccc(Br)cc2)=C(C#N)C12CCCCC2 | active: 12%
CCCCCNC(=O)c1ccc2c(=O)n(CCc3ccccc3)c(=O)[nH]c2c1 | inactive: 76%
CCOC(=O)N1CCc2c(sc(NCc3cccc(F)c3)c2C(=O)Nc2ccc(OCC)cc2)C1 | inactive: 67%
COc1ccc(C(=O)Nc2nonc2-c2ccc(OC)c(OC)c2)cc1Cl | inactive: 49%
Cc1ccc(-c2nc(Cn3c(SCc4ccc(F)cc4)nc4cccnc43)c(C)o2)cc1 | inactive: 91%
CCCn1c(NCc2ccccc2F)nc2ccccc21 | inactive: 90%
O=C(Nc1cccc(NC(=O)c2ccc(Br)cc2)c1)c1ccccc1 | inactive: 76%
COC(=O)COc1ccc(S(=O)(=O)N2CCC(C)CC2)cc1 | inactive: 95%
CCC(=O)N1c2ccc(S(=O)(=O)CCC(=O)N3CCN(c4ccc(F)cc4)CC3)cc2CC1C (configuration not stated) | inactive: 86%
COc1ccc2c(c1)CC(NC(=O)Nc1ccc(Br)c(C)c1)CO2 (configuration not stated) | inactive: 75%
CCO/C(C)=N\Oc1nc2nonc2nc1O/N=C(/C)OCC | inactive: 115%
COc1cccc(NC(=O)C2CCN(S(=O)(=O)c3c(C)noc3/C=C/c3cccs3)CC2)c1 | inactive: 58%
O=C(COc1ccccc1Cl)Nc1nc(-c2ccc(F)cc2)ns1 | inactive: 55%
CCc1nnc(SCc2nc(-c3cccc(C)c3)oc2C)c2cc3sc(C)cc3n12 | inactive: 82%
O=C(CSc1nccn1-c1ccc(F)cc1)Nc1cccc2ccccc12 | inactive: 85%
C#CCNc1ccccc1 | inactive: 106%
O=C(Nc1ccc2ccccc2c1)C1CC(=O)N(C2CCCCC2)C1 (configuration not stated) | inactive: 92%
CC(=O)c1ccc(S(=O)(=O)N2CCn3cccc3C2c2ccc(F)c(F)c2)cc1 (configuration not stated) | inactive: 77%
COc1ccc(CNc2ncnc3c2c(-c2ccccc2)cn3-c2cccc(C)c2)cc1 | inactive: 67%
Cc1cc(=O)c2c(o1)CC(C)(C)CC2=O | inactive: 79%
CC(C)Oc1ccc(CNC(=O)c2ccc3c(c2)N(C)C(=O)C2CCCCN32)cc1 (configuration not stated) | active: 37%
Nc1nc(CSc2ccccn2)nc(Nc2ccccc2)n1 | inactive: 97%
